Experimental data published in the supplement of paper PMC8728848.
This is one part of the list.

What was measured:
Test in all cases: glycan array binding signal (z-score within array); higher = stronger binding
Details in all cases: glycan notation: IUPAC condensed, linker removed
[1] = molecular target: Gal(a1-3)[Gal(a1-4)]Gal(b1-4)GlcNAc
Method in brief: (§1)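 Glycan array binding is given as a within-array Z-score, which can be read as non-binding when negative. The arrays, 3228 of them, came from the Consortium for Functional Glycomics database and were retained only where the protein sequence was available. Z-scores were averaged across arrays of the same protein sequence at different concentrations or buffers and across linkers.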

[2] = molecular target: Gal(a1-4)Gal(b1-3)GlcNAc(b1-2)Man(a1-3)[Gal(a1-4)Gal(b1-3)GlcNAc(b1-2)Man(a1-6)]Man(b1-4)GlcNAc(b1-4)GlcNAc
Method in brief: as §1

[3] = molecular target: Gal(a1-4)Gal(b1-4)Glc
Method in brief: as §1

[4] = molecular target: Gal(a1-4)Gal(b1-4)GlcNAc
Method in brief: as §1

[5] = molecular target: Gal(a1-4)Gal(b1-4)GlcNAc(b1-2)Man(a1-3)[Gal(a1-4)Gal(b1-4)GlcNAc(b1-2)Man(a1-6)]Man(b1-4)GlcNAc(b1-4)GlcNAc
Method in brief: as §1

[6] = molecular target: Gal(a1-4)Gal(b1-4)GlcNAc(b1-3)Gal(b1-4)Glc
Method in brief: as §1

[7] = molecular target: Gal(a1-4)GlcNAc
Method in brief: as §1

[8] = molecular target: Gal(a1-6)Glc
Method in brief: as §1

[9] = molecular target: Gal(b1-2)Gal
Method in brief: as §1

[10] = molecular target: Gal(b1-3)Gal
Method in brief: as §1

[11] = molecular target: Gal(b1-3)Gal(b1-4)GlcNAc
Method in brief: as §1

[12] = molecular target: Gal(b1-3)GalNAc
Method in brief: as §1

[13] = molecular target: Gal(b1-3)GalNAc(a1-3)[Fuc(a1-2)]Gal(b1-4)Glc
Method in brief: as §1

[14] = molecular target: Gal(b1-3)GalNAc(a1-3)[Fuc(a1-2)]Gal(b1-4)GlcNAc
Method in brief: as §1

[15] = molecular target: Gal(b1-3)GalNAc(b1-3)Gal
Method in brief: as §1

[16] = molecular target: Gal(b1-3)GalNAc(b1-3)Gal(a1-4)Gal(b1-4)Glc
Method in brief: as §1

[17] = molecular target: Gal(b1-3)GalNAc(b1-4)Gal(b1-4)Glc
Method in brief: as §1

[18] = molecular target: Gal(b1-3)GalNAc(b1-4)[Neu5Ac(a2-3)]Gal(b1-4)Glc
Method in brief: as §1

[19] = molecular target: Gal(b1-3)GlcNAc
Method in brief: as §1

[20] = molecular target: Gal(b1-3)GlcNAc(a1-3)Gal(b1-4)GlcNAc
Method in brief: as §1

[21] = molecular target: Gal(b1-3)GlcNAc(a1-6)Gal(b1-4)GlcNAc
Method in brief: as §1

[22] = molecular target: Gal(b1-3)GlcNAc(b1-2)Man
Method in brief: as §1

[23] = molecular target: Gal(b1-3)GlcNAc(b1-2)Man(a1-3)[Gal(b1-3)GlcNAc(b1-2)Man(a1-6)]Man(b1-4)GlcNAc(b1-4)GlcNAc
Method in brief: as §1

[24] = molecular target: Gal(b1-3)GlcNAc(b1-2)Man(a1-3)[Gal(b1-3)GlcNAc(b1-2)Man(a1-6)]Man(b1-4)GlcNAc(b1-4)[Fuc(a1-6)]GlcNAc
Method in brief: as §1

[25] = molecular target: Gal(b1-3)GlcNAc(b1-2)Man(a1-3)[GlcNAc(b1-4)][Gal(b1-3)GlcNAc(b1-2)Man(a1-6)]Man(b1-4)GlcNAc(b1-4)GlcNAc
Method in brief: as §1

[26] = molecular target: Gal(b1-3)GlcNAc(b1-2)[Gal(b1-3)GlcNAc(b1-6)]Man(a1-6)[Gal(b1-3)GlcNAc(b1-2)Man(a1-3)]Man(b1-4)GlcNAc(b1-4)GlcNAc
Method in brief: as §1

[27] = molecular target: Gal(b1-3)GlcNAc(b1-3)Gal(b1-3)GlcNAc
Method in brief: as §1

[28] = molecular target: Gal(b1-3)GlcNAc(b1-3)Gal(b1-4)Glc
Method in brief: as §1

[29] = molecular target: Gal(b1-3)GlcNAc(b1-3)Gal(b1-4)GlcNAc
Method in brief: as §1

[30] = molecular target: Gal(b1-3)GlcNAc(b1-3)Gal(b1-4)GlcNAc(b1-2)Man(a1-3)[Gal(b1-3)GlcNAc(b1-3)Gal(b1-4)GlcNAc(b1-2)Man(a1-6)]Man(b1-4)GlcNAc(b1-4)GlcNAc
Method in brief: as §1

[31] = molecular target: Gal(b1-3)GlcNAc(b1-3)Gal(b1-4)GlcNAc(b1-2)[Gal(b1-3)GlcNAc(b1-3)Gal(b1-4)GlcNAc(b1-6)]Man(a1-6)[Gal(b1-3)GlcNAc(b1-3)Gal(b1-4)GlcNAc(b1-2)Man(a1-3)]Man(b1-4)GlcNAc(b1-4)[Fuc(a1-6)]GlcNAc
Method in brief: as §1

[32] = molecular target: Gal(b1-3)GlcNAc(b1-3)Gal(b1-4)GlcNAc(b1-3)Gal(b1-4)GlcNAc(b1-2)[Gal(b1-3)GlcNAc(b1-3)Gal(b1-4)GlcNAc(b1-3)Gal(b1-4)GlcNAc(b1-6)]Man(a1-6)[Gal(b1-3)GlcNAc(b1-3)Gal(b1-4)GlcNAc(b1-3)Gal(b1-4)GlcNAc(b1-2)Man(a1-3)]Man(b1-4)GlcNAc(b1-4)[Fuc(a1-6)]GlcNAc
Method in brief: as §1

[33] = molecular target: Gal(b1-3)GlcNAc(b1-3)Gal(b1-4)GlcNAc(b1-6)[Gal(b1-3)GlcNAc(b1-3)]Gal(b1-4)Glc
Method in brief: as §1

[34] = molecular target: Gal(b1-3)GlcNAc(b1-3)Gal(b1-4)[Fuc(a1-3)]GlcNAc
Method in brief: as §1

[35] = molecular target: Gal(b1-3)GlcNAc(b1-3)Gal(b1-4)[Fuc(a1-3)]GlcNAc(b1-6)[Gal(b1-3)GlcNAc(b1-3)]Gal(b1-4)Glc
Method in brief: as §1

[36] = molecular target: Gal(b1-3)GlcNAc(b1-3)GalNAc
Method in brief: as §1

[37] = molecular target: Gal(b1-3)GlcNAc(b1-6)Gal(b1-4)GlcNAc
Method in brief: as §1

[38] = molecular target: Gal(b1-3)GlcNAc(b1-6)GalNAc
Method in brief: as §1

B1: Epa22 (Candida glabrata) (protein)
chain: MGSSHHHHHHSSGLVPRGSHMKRALSSQNPFGYPIGCSPQSTNVIPGLTMELYSYPIVSGTPPNCYDASYVDPEYPRTGYLKRKMIGKSTGVTGSLNYKFSVEKACMVKYGNLPAGYNYNEPLTVSNFTMLLYGYFKPQTSGIHTFFVNADDLLYINFGAGNAFDCCKREDSKFKLGEYVAYDIWHVDSSKNKVSLNLEKDVYYPIRMFFNNIGKDSSLDLSFSVNGAVEHITDFSGYLYSVPDQPDACPAPIGYDTTCK
[1]
  glycan array binding signal (z-score): 1.12
[2]
  glycan array binding signal (z-score): 0.087
[3]
  glycan array binding signal (z-score): 2.75
[4]
  glycan array binding signal (z-score): 3.58
[5]
  glycan array binding signal (z-score): 0.741
[6]
  glycan array binding signal (z-score): -0.077
[7]
  glycan array binding signal (z-score): 5.91
[8]
  glycan array binding signal (z-score): 6.63
[9]
  glycan array binding signal (z-score): 1.37
[10]
  glycan array binding signal (z-score): 1.3
[11]
  glycan array binding signal (z-score): 3.14
[12]
  glycan array binding signal (z-score): -0.142
[13]
  glycan array binding signal (z-score): -0.146
[14]
  glycan array binding signal (z-score): -0.36
[15]
  glycan array binding signal (z-score): 0.332
[16]
  glycan array binding signal (z-score): -0.356
[17]
  glycan array binding signal (z-score): 0.34
[18]
  glycan array binding signal (z-score): -0.279
[19]
  glycan array binding signal (z-score): 1.27
[20]
  glycan array binding signal (z-score): -0.294
[21]
  glycan array binding signal (z-score): 0.491
[22]
  glycan array binding signal (z-score): 2.09
[23]
  glycan array binding signal (z-score): -0.314
[24]
  glycan array binding signal (z-score): -0.384
[25]
  glycan array binding signal (z-score): -0.318
[26]
  glycan array binding signal (z-score): -0.285
[27]
  glycan array binding signal (z-score): -0.122
[28]
  glycan array binding signal (z-score): 0.04
[29]
  glycan array binding signal (z-score): -0.148
[30]
  glycan array binding signal (z-score): -0.304
[31]
  glycan array binding signal (z-score): -0.3
[32]
  glycan array binding signal (z-score): -0.325
[33]
  glycan array binding signal (z-score): -0.145
[34]
  glycan array binding signal (z-score): -0.108
[35]
  glycan array binding signal (z-score): -0.129
[36]
  glycan array binding signal (z-score): 2.18
[37]
  glycan array binding signal (z-score): 1.41
[38]
  glycan array binding signal (z-score): 0.411
